# According to the supplement of paper PMC8728848:
# The list shows a part of the results.
# B1: rCnSL-A (Clitocybe nebularis) (protein)
# chain: VNPNLPGPNDVFVGFRGTNNIVGAIYEKDGIKDTPLNNGADAEMGPGSYITDGLFTARIFASGSAGNNPGTTATVCKIYASGVQWRGAPKGYIPVAYFGNGPTAEQRRQTYLRTLGLPGTAIRFGNLNTNPGQGPTAPRQMVVPPGPLRSLLKASCFPAADTRLPQTLHYFEKRVDWNIITAADSQTWGH
# Legend:
# Assay in all cases: glycan array binding signal (z-score within array); higher = stronger binding
# Settings in all cases: glycan notation: IUPAC condensed, linker removed
# Gal(b1-2)Gal = molecular target: Gal(b1-2)Gal
# Method in brief: (§1)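 Arrays were curated from the Consortium for Functional Glycomics database, 3228 in total, and kept only where the protein sequence was available. Binding is expressed as a within-array Z-score. This score was averaged across arrays of the same protein sequence at different concentrations or buffers and across linkers, and negative values can be read as non-binding.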
# Gal(b1-3)Gal = molecular target: Gal(b1-3)Gal
# Method in brief: as §1
# Gal(b1-3)Gal(b1-4)GlcNAc = molecular target: Gal(b1-3)Gal(b1-4)GlcNAc
# Method in brief: as §1
# Gal(b1-3)GalNAc = molecular target: Gal(b1-3)GalNAc
# Method in brief: as §1
# [1] = molecular target: Gal(b1-3)GalNAc(a1-3)[Fuc(a1-2)]Gal(b1-4)Glc
# Method in brief: as §1
# [2] = molecular target: Gal(b1-3)GalNAc(a1-3)[Fuc(a1-2)]Gal(b1-4)GlcNAc
# Method in brief: as §1
# Gal(b1-3)GalNAc(b1-3)Gal = molecular target: Gal(b1-3)GalNAc(b1-3)Gal
# Method in brief: as §1
# [3] = molecular target: Gal(b1-3)GalNAc(b1-3)Gal(a1-4)Gal(b1-4)Glc
# Method in brief: as §1
# [4] = molecular target: Gal(b1-3)GalNAc(b1-4)Gal(b1-4)Glc
# Method in brief: as §1
# [5] = molecular target: Gal(b1-3)GalNAc(b1-4)[Neu5Ac(a2-3)]Gal(b1-4)Glc
# Method in brief: as §1
# Gal(b1-3)GlcNAc = molecular target: Gal(b1-3)GlcNAc
# Method in brief: as §1
# [6] = molecular target: Gal(b1-3)GlcNAc(a1-3)Gal(b1-4)GlcNAc
# Method in brief: as §1
# [7] = molecular target: Gal(b1-3)GlcNAc(a1-6)Gal(b1-4)GlcNAc
# Method in brief: as §1
# Gal(b1-3)GlcNAc(b1-2)Man = molecular target: Gal(b1-3)GlcNAc(b1-2)Man
# Method in brief: as §1
# [8] = molecular target: Gal(b1-3)GlcNAc(b1-2)Man(a1-3)[Gal(b1-3)GlcNAc(b1-2)Man(a1-6)]Man(b1-4)GlcNAc(b1-4)GlcNAc
# Method in brief: as §1
# [9] = molecular target: Gal(b1-3)GlcNAc(b1-2)Man(a1-3)[Gal(b1-3)GlcNAc(b1-2)Man(a1-6)]Man(b1-4)GlcNAc(b1-4)[Fuc(a1-6)]GlcNAc
# Method in brief: as §1
# [10] = molecular target: Gal(b1-3)GlcNAc(b1-2)Man(a1-3)[GlcNAc(b1-4)][Gal(b1-3)GlcNAc(b1-2)Man(a1-6)]Man(b1-4)GlcNAc(b1-4)GlcNAc
# Method in brief: as §1
# [11] = molecular target: Gal(b1-3)GlcNAc(b1-2)[Gal(b1-3)GlcNAc(b1-6)]Man(a1-6)[Gal(b1-3)GlcNAc(b1-2)Man(a1-3)]Man(b1-4)GlcNAc(b1-4)GlcNAc
# Method in brief: as §1
# [12] = molecular target: Gal(b1-3)GlcNAc(b1-3)Gal(b1-3)GlcNAc
# Method in brief: as §1
# [13] = molecular target: Gal(b1-3)GlcNAc(b1-3)Gal(b1-4)Glc
# Method in brief: as §1
# [14] = molecular target: Gal(b1-3)GlcNAc(b1-3)Gal(b1-4)GlcNAc
# Method in brief: as §1
# [15] = molecular target: Gal(b1-3)GlcNAc(b1-3)Gal(b1-4)GlcNAc(b1-2)Man(a1-3)[Gal(b1-3)GlcNAc(b1-3)Gal(b1-4)GlcNAc(b1-2)Man(a1-6)]Man(b1-4)GlcNAc(b1-4)GlcNAc
# Method in brief: as §1
# [16] = molecular target: Gal(b1-3)GlcNAc(b1-3)Gal(b1-4)GlcNAc(b1-2)[Gal(b1-3)GlcNAc(b1-3)Gal(b1-4)GlcNAc(b1-6)]Man(a1-6)[Gal(b1-3)GlcNAc(b1-3)Gal(b1-4)GlcNAc(b1-2)Man(a1-3)]Man(b1-4)GlcNAc(b1-4)[Fuc(a1-6)]GlcNAc
# Method in brief: as §1
# [17] = molecular target: Gal(b1-3)GlcNAc(b1-3)Gal(b1-4)GlcNAc(b1-3)Gal(b1-4)GlcNAc(b1-2)[Gal(b1-3)GlcNAc(b1-3)Gal(b1-4)GlcNAc(b1-3)Gal(b1-4)GlcNAc(b1-6)]Man(a1-6)[Gal(b1-3)GlcNAc(b1-3)Gal(b1-4)GlcNAc(b1-3)Gal(b1-4)GlcNAc(b1-2)Man(a1-3)]Man(b1-4)GlcNAc(b1-4)[Fuc(a1-6)]GlcNAc
# Method in brief: as §1
# [18] = molecular target: Gal(b1-3)GlcNAc(b1-3)Gal(b1-4)GlcNAc(b1-6)[Gal(b1-3)GlcNAc(b1-3)]Gal(b1-4)Glc
# Method in brief: as §1
# [19] = molecular target: Gal(b1-3)GlcNAc(b1-3)Gal(b1-4)[Fuc(a1-3)]GlcNAc
# Method in brief: as §1
# [20] = molecular target: Gal(b1-3)GlcNAc(b1-3)Gal(b1-4)[Fuc(a1-3)]GlcNAc(b1-6)[Gal(b1-3)GlcNAc(b1-3)]Gal(b1-4)Glc
# Method in brief: as §1
# [21] = molecular target: Gal(b1-3)GlcNAc(b1-3)GalNAc
# Method in brief: as §1
# [22] = molecular target: Gal(b1-3)GlcNAc(b1-6)Gal(b1-4)GlcNAc
# Method in brief: as §1
# [23] = molecular target: Gal(b1-3)GlcNAc(b1-6)GalNAc
# Method in brief: as §1
# [24] = molecular target: Gal(b1-3)GlcNAc(b1-6)[Gal(b1-3)]GalNAc
# Method in brief: as §1
# Gal(b1-3)GlcNAc6S = molecular target: Gal(b1-3)GlcNAc6S
# Method in brief: as §1
# [25] = molecular target: Gal(b1-3)[Fuc(a1-4)]GlcNAc
# Method in brief: as §1
# [26] = molecular target: Gal(b1-3)[Fuc(a1-4)]GlcNAc(b1-2)Man
# Method in brief: as §1
# [27] = molecular target: Gal(b1-3)[Fuc(a1-4)]GlcNAc(b1-2)Man(a1-3)[Gal(b1-3)[Fuc(a1-4)]GlcNAc(b1-2)Man(a1-6)]Man(b1-4)GlcNAc(b1-4)[Fuc(a1-6)]GlcNAc
# Method in brief: as §1
# [28] = molecular target: Gal(b1-3)[Fuc(a1-4)]GlcNAc(b1-3)Gal(b1-3)[Fuc(a1-4)]GlcNAc
# Method in brief: as §1
# [29] = molecular target: Gal(b1-3)[Fuc(a1-4)]GlcNAc(b1-3)Gal(b1-4)[Fuc(a1-3)]GlcNAc
# Method in brief: as §1
# [30] = molecular target: Gal(b1-3)[Fuc(a1-4)]GlcNAc(b1-6)GalNAc
# Method in brief: as §1
# [31] = molecular target: Gal(b1-3)[GlcNAc(b1-6)]GalNAc
# Method in brief: as §1
# [32] = molecular target: Gal(b1-3)[Neu5Ac(a2-6)]GalNAc
# Method in brief: as §1
# [33] = molecular target: Gal(b1-3)[Neu5Ac(a2-6)]GlcNAc(b1-4)Gal(b1-4)Glc
# Method in brief: as §1
# [34] = molecular target: Gal(b1-3)[Neu5Ac(b2-6)]GalNAc
# Method in brief: as §1
# Gal(b1-4)Gal = molecular target: Gal(b1-4)Gal
# Method in brief: as §1
# [35] = molecular target: Gal(b1-4)GalNAc(a1-3)[Fuc(a1-2)]Gal(b1-4)GlcNAc
# Method in brief: as §1
# [36] = molecular target: Gal(b1-4)GalNAc(b1-3)[Fuc(a1-2)]Gal(b1-4)GlcNAc
# Method in brief: as §1
binder,measurement,setting,value
B1,glycan array binding signal (z-score),Gal(b1-2)Gal,-0.267
same,glycan array binding signal (z-score),Gal(b1-3)Gal,-0.169
same,glycan array binding signal (z-score),Gal(b1-3)Gal(b1-4)GlcNAc,-0.132
same,glycan array binding signal (z-score),Gal(b1-3)GalNAc,-0.19
same,glycan array binding signal (z-score),[1],-0.239
same,glycan array binding signal (z-score),[2],-0.222
same,glycan array binding signal (z-score),Gal(b1-3)GalNAc(b1-3)Gal,-0.258
same,glycan array binding signal (z-score),[3],-0.216
same,glycan array binding signal (z-score),[4],-0.268
same,glycan array binding signal (z-score),[5],-0.199
same,glycan array binding signal (z-score),Gal(b1-3)GlcNAc,-0.152
same,glycan array binding signal (z-score),[6],0.566
same,glycan array binding signal (z-score),[7],0.459
same,glycan array binding signal (z-score),Gal(b1-3)GlcNAc(b1-2)Man,-0.106
same,glycan array binding signal (z-score),[8],1.65
same,glycan array binding signal (z-score),[9],-0.119
same,glycan array binding signal (z-score),[10],0.307
same,glycan array binding signal (z-score),[11],0.503
same,glycan array binding signal (z-score),[12],-0.048
same,glycan array binding signal (z-score),[13],-0.176
same,glycan array binding signal (z-score),[14],-0.196
same,glycan array binding signal (z-score),[15],0.501
same,glycan array binding signal (z-score),[16],1.95
same,glycan array binding signal (z-score),[17],3.37
same,glycan array binding signal (z-score),[18],0.569
same,glycan array binding signal (z-score),[19],-0.207
same,glycan array binding signal (z-score),[20],0.339
same,glycan array binding signal (z-score),[21],-0.217
same,glycan array binding signal (z-score),[22],0.172
same,glycan array binding signal (z-score),[23],-0.15
same,glycan array binding signal (z-score),[24],-0.196
same,glycan array binding signal (z-score),Gal(b1-3)GlcNAc6S,-0.206
same,glycan array binding signal (z-score),[25],-0.209
same,glycan array binding signal (z-score),[26],0.042
same,glycan array binding signal (z-score),[27],-0.187
same,glycan array binding signal (z-score),[28],-0.147
same,glycan array binding signal (z-score),[29],-0.167
same,glycan array binding signal (z-score),[30],-0.166
same,glycan array binding signal (z-score),[31],-0.23
same,glycan array binding signal (z-score),[32],-0.032
same,glycan array binding signal (z-score),[33],-0.194
same,glycan array binding signal (z-score),[34],-0.245
same,glycan array binding signal (z-score),Gal(b1-4)Gal,-0.221
same,glycan array binding signal (z-score),[35],-0.275
same,glycan array binding signal (z-score),[36],-0.256
